# Reference: paper PMC12040169 (PLOS Biology, 2025)
# The other results are listed elsewhere or left out.
# Test system: T1, C. trachomatis L2/434/Bu expressing GFP (CTL2-GFP)
# T1 construct: L2/434/Bu GFP intracellular growth in HeLa cells
# Set-up: species or system HeLa; C. trachomatis total inclusion area by high-content imaging, normalised to DMSO
# Settings: total inclusion area; 28.5 h, 10 µM; inhibitor
# Method in brief: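 Imaging read-out: GFP inclusions and Hoechst nuclei captured by high-content imaging after fixation. Inclusion area/number = chlamydial growth; nuclei count = host cell viability. MIC calculated per earlier method.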
row,Compound,% of control remaining
1,COCCN(Cc1cnn(C)c1)C(=O)Nc1cccc2nc(C)ccc12 [CBK306529],53.733
2,N#Cc1ccc(Oc2cccc(/N=C/c3ccc(/C=N/c4cccc(Oc5ccc(C#N)cc5)c4)cc3)c2)cc1 [CBK261157],85.7567
3,O=C1Nc2ccccc2S(=O)(=O)N2CCCC12 (stereo not shown) [CBK282864],88.761
4,Cc1cc(C)nc(Sc2nnc(-c3ccc(C)c(S(=O)(=O)N4CCOCC4)c3)c3ccccc23)n1 [CBK264400],109.846
5,COc1ccc([C@H]2CN(Cc3ccccc3)[C@@H]3CCN(C(=O)Cc4ccccc4)C[C@H]23)cc1 [CBK286285],43.8859
6,COc1ccc2cc(CNc3ccc(CCc4nc5ccccc5n4C)cc3)c(=O)[nH]c2c1 [CBK286159],124.45
7,Cc1nn(C)c(N2CCNCC2)c1NC(=O)C(C)c1ccccc1 (stereo not shown) [CBK045929T],60.5487
8,COc1ccc(-c2cc(C(=O)NC3CCCCC3C)c3ccccc3n2)cc1 (stereo not shown) [CBK294459],93.527
9,O=C(CN1CCC(c2ccccc2F)CC1)N1CCCC1 [CBK283578],95.2085
10,Clc1ccc(CSCCn2cccc2)cc1 [CBK021366],91.4849
11,Cc1cc2c(cc1C)C(O)CC1(CCN(C(=O)C3CCCC3)CC1)O2 (stereo not shown) [CBK282743],111.808
12,COc1cccc(Nc2[nH]nnc2C(=O)Nc2cccc(C)c2C)c1 [CBK288028],100.942
13,Cc1ccc(C(=O)NCc2ccco2)c(N2CCOCC2)n1 [CBK076410],71.1853
14,COC(=O)CCNc1nc(-c2ccc(Br)cc2)nc2ccccc12 [CBK263628],104.615
15,O=C(N[C@H]1CCN2C(=O)c3cc(-c4ccccc4)ccc3NC(=O)[C@H]12)C1CCCC1 [CBK289349],107.041
16,C[N+](C)(C)CCCCOC(c1ccccc1)c1ccccc1 [CBK261076I],95.5368
17,O=C(c1nc2ccccc2[nH]1)N1CCN(c2ccccc2)CC1 [CBK200167],109.127
18,CC(NC(=O)CCC1CCCC1)c1nc(-c2ccncc2)cs1 (stereo not shown) [CBK305819],80.3004
19,c1ccc(CN2CCN(Cc3ccccc3)C2c2ccc[nH]2)cc1 [CBK261283],96.6029
20,COCCN(Cc1cnn(C)c1)C(=O)Cc1coc2cc(C)c(Cl)cc12 [CBK307435],20.1566
21,O=C(CN1CCOCC1)N/N=C/c1cc2ccccc2nc1Cl [CBK262732],91.1974
22,COc1cccc(CC(=O)N2CCC[C@@H](N)[C@@H]2c2ccccc2F)c1 [CBK283455],105.501
